Data reported in the supplement of paper PMC4967469.
By IC50 is meant the dose at which the fit gives 50% viability; where the fit passes the top or lowest dose, that dose stands as a limit. AUC is the area under the same curve over the 256-fold range up to the top dose, as a fraction; values near 1 show little effect. For part of these data: Any top dose called inferred is not printed in the source and was worked back from the curve model.

Experiments:
Experiment in all cases: Viability of human cancer cell lines after 72 h of drug (GDSC screen)
[1] = compound: CCc1cncnc1N1CCN(Cc2nc3ccc(C(F)(F)F)cc3[nH]2)CC1 [PF-4708671]; settings: top dose 10 µM; top dose inferred
Protocol: (§1)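 Human cancer cell lines in 384-well plates, medium with 10% serum, drug for 72 h over a 256-fold dose range (nine 2-fold or five 4-fold steps up to the top dose). Adherent lines were fixed and stained with the nucleic acid dye Syto60, suspension lines read with resazurin; signal relative to control wells, capped at 0 and 100%. One two-parameter sigmoid per drug and line, fitted in a mixed model over all curves with the slope shared within a line.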

[2] = compound: COc1cc2nccc(Oc3ccc(NC(=O)Nc4cc(C)on4)c(Cl)c3)c2cc1OC [AV-951]; settings: top dose 0.128 µM; top dose inferred
Protocol: as §1

[3] = compound: CC(=O)Nc1cccc(-n2c(=O)n(C3CC3)c(=O)c3c(Nc4ccc(I)cc4F)n(C)c(=O)c(C)c32)c1 [Trametinib]; settings: top dose 1 µM
Protocol: as §1

[4] = compound: CCNC(=O)C[C@@H]1N=C(c2ccc(Cl)cc2)c2cc(OC)ccc2-n2c(C)nnc21 [I-BET-762]; settings: top dose 20 µM; top dose inferred
Protocol: as §1

[5] = compound: O=C(NC(COc1ccc2[nH]c(=O)[nH]c2c1)c1ccccc1)c1cccn(Cc2ccc(F)c(F)c2)c1=O [KIN001-244]; settings: top dose 20 µM; top dose inferred
Protocol: as §1

[6] = compound: Nc1ccccc1NC(=O)c1ccc(CNC(=O)OCc2cccnc2)cc1 [MS-275]; settings: top dose 5 µM; top dose inferred
Protocol: as §1

[7] = compound: CCN1CCN(Cc2ccc(NC(=O)c3ccc(C)c(/C=C/c4cnc5[nH]ccc5c4OC)c3)cc2C(F)(F)F)CC1 [HG-6-64-1]; settings: top dose 5.12 µM; top dose inferred
Protocol: as §1

Cell Line: LC4-1 (lymphoblastic leukaemia, suspension)
- AUC [1]: 0.964
- IC50 [1]: > 10000 nM
- AUC [2]: 0.966
- IC50 [2]: > 128 nM
- AUC [3]: 0.929
- IC50 [3]: > 1000 nM
- AUC [4]: 0.596
- IC50 [4]: 2370 nM
- AUC [5]: 0.647
- IC50 [5]: 3340 nM
- AUC [6]: 0.673
- IC50 [6]: 1000 nM
- AUC [7]: 0.826
- IC50 [7]: 3540 nM

Cell Line: LC-2-ad (lung adenocarcinoma, adherent)
- AUC [1]: 0.974
- IC50 [1]: > 10000 nM
- AUC [2]: 0.954
- IC50 [2]: > 128 nM
- AUC [3]: 0.755
- IC50 [3]: 347 nM
- AUC [4]: 0.862
- IC50 [4]: 17800 nM
- AUC [5]: 0.821
- IC50 [5]: 12000 nM
- AUC [6]: 0.591
- IC50 [6]: 559 nM
- AUC [7]: 0.247
- IC50 [7]: 58.6 nM

Cell Line: LNCaP-Clone-FGC (prostate, adherent)
- AUC [1]: 0.955
- IC50 [1]: > 10000 nM
- AUC [2]: 0.973
- IC50 [2]: > 128 nM
- AUC [3]: 0.981
- IC50 [3]: > 1000 nM
- AUC [4]: 0.611
- IC50 [4]: 2640 nM
- AUC [5]: 0.916
- IC50 [5]: > 20000 nM
- AUC [6]: 0.904
- IC50 [6]: > 5000 nM
- AUC [7]: 0.968
- IC50 [7]: > 5120 nM

Cell Line: LOXIMVI (melanoma, semi-adherent)
- AUC [1]: 0.99
- IC50 [1]: > 10000 nM
- AUC [2]: 0.988
- IC50 [2]: > 128 nM
- AUC [3]: 0.076
- IC50 [3]: < 3.91 nM
- AUC [4]: 0.965
- IC50 [4]: > 20000 nM
- AUC [5]: 0.955
- IC50 [5]: > 20000 nM
- AUC [6]: 0.791
- IC50 [6]: 1980 nM
- AUC [7]: 0.707
- IC50 [7]: 1140 nM

Cell Line: LP-1 (myeloma, suspension)
- AUC [1]: 0.899
- IC50 [1]: 8810 nM
- AUC [2]: 0.993
- IC50 [2]: > 128 nM
- AUC [3]: 0.992
- IC50 [3]: > 1000 nM
- AUC [4]: 0.546
- IC50 [4]: 1630 nM
- AUC [5]: 0.845
- IC50 [5]: 10900 nM
- AUC [6]: 0.755
- IC50 [6]: 1440 nM
- AUC [7]: 0.964
- IC50 [7]: > 5120 nM

Cell Line: LS-123 (large intestine, adherent)
- AUC [1]: 0.94
- IC50 [1]: > 10000 nM
- AUC [2]: 0.982
- IC50 [2]: > 128 nM
- AUC [3]: 0.64
- IC50 [3]: 174 nM
- AUC [4]: 0.981
- IC50 [4]: > 20000 nM
- AUC [5]: 0.931
- IC50 [5]: > 20000 nM
- AUC [6]: 0.833
- IC50 [6]: 4840 nM
- AUC [7]: 0.886
- IC50 [7]: > 5120 nM

Cell Line: LS-513 (large intestine, adherent)
- AUC [1]: 0.987
- IC50 [1]: > 10000 nM
- AUC [2]: 0.985
- IC50 [2]: > 128 nM
- AUC [3]: 0.383
- IC50 [3]: 29.5 nM
- AUC [4]: 0.857
- IC50 [4]: 17400 nM
- AUC [5]: 0.822
- IC50 [5]: 12300 nM
- AUC [6]: 0.987
- IC50 [6]: > 5000 nM
- AUC [7]: 0.933
- IC50 [7]: > 5120 nM

Cell Line: LS-1034 (large intestine, adherent)
- AUC [1]: 0.986
- IC50 [1]: > 10000 nM
- AUC [2]: 0.986
- IC50 [2]: > 128 nM
- AUC [3]: 0.428
- IC50 [3]: 38.8 nM
- AUC [4]: 0.861
- IC50 [4]: 20000 nM
- AUC [5]: 0.867
- IC50 [5]: > 20000 nM
- AUC [6]: 0.915
- IC50 [6]: > 5000 nM
- AUC [7]: 0.952
- IC50 [7]: > 5120 nM

Cell Line: LU-134-A (small cell lung carcinoma, suspension)
- AUC [1]: 0.987
- IC50 [1]: > 10000 nM
- AUC [2]: 0.962
- IC50 [2]: > 128 nM
- AUC [3]: 0.979
- IC50 [3]: > 1000 nM
- AUC [4]: 0.623
- IC50 [4]: 2800 nM
- AUC [5]: 0.927
- IC50 [5]: > 20000 nM
- AUC [6]: 0.6
- IC50 [6]: 599 nM
- AUC [7]: 0.959
- IC50 [7]: > 5120 nM

Cell Line: LU-139 (small cell lung carcinoma, suspension)
- AUC [1]: 0.924
- IC50 [1]: > 10000 nM
- AUC [2]: 0.962
- IC50 [2]: > 128 nM
- AUC [3]: 0.973
- IC50 [3]: > 1000 nM
- AUC [4]: 0.751
- IC50 [4]: 8260 nM
- AUC [5]: 0.819
- IC50 [5]: 15700 nM
- AUC [6]: 0.526
- IC50 [6]: 375 nM
- AUC [7]: 0.963
- IC50 [7]: > 5120 nM

Cell Line: LU-165 (small cell lung carcinoma, suspension)
- AUC [1]: 0.946
- IC50 [1]: > 10000 nM
- AUC [2]: 0.961
- IC50 [2]: > 128 nM
- AUC [3]: 0.987
- IC50 [3]: > 1000 nM
- AUC [4]: 0.899
- IC50 [4]: > 20000 nM
- AUC [5]: 0.906
- IC50 [5]: > 20000 nM
- AUC [6]: 0.61
- IC50 [6]: 651 nM
- AUC [7]: 0.938
- IC50 [7]: > 5120 nM

Cell Line: LXF-289 (lung adenocarcinoma, adherent)
- AUC [1]: 0.913
- IC50 [1]: > 10000 nM
- AUC [2]: 0.986
- IC50 [2]: > 128 nM
- AUC [3]: 0.631
- IC50 [3]: 142 nM
- AUC [4]: 0.976
- IC50 [4]: > 20000 nM
- AUC [5]: 0.918
- IC50 [5]: > 20000 nM
- AUC [6]: 0.682
- IC50 [6]: 997 nM
- AUC [7]: 0.634
- IC50 [7]: 745 nM

Cell Line: MC116 (B-cell lymphoma, suspension)
- AUC [1]: 0.997
- IC50 [1]: > 10000 nM
- AUC [2]: 0.999
- IC50 [2]: > 128 nM
- AUC [3]: 0.999
- IC50 [3]: > 1000 nM
- AUC [4]: 0.765
- IC50 [4]: 5440 nM
- AUC [5]: 0.775
- IC50 [5]: 5740 nM
- AUC [6]: 0.739
- IC50 [6]: 1180 nM
- AUC [7]: 0.896
- IC50 [7]: 2950 nM

Cell Line: MC-CAR (haematopoietic neoplasm, suspension)
- AUC [1]: 0.97
- IC50 [1]: > 10000 nM
- AUC [2]: 0.97
- IC50 [2]: > 128 nM
- AUC [3]: 0.957
- IC50 [3]: > 1000 nM
- AUC [4]: 0.55
- IC50 [4]: 1680 nM
- AUC [5]: 0.663
- IC50 [5]: 3350 nM
- AUC [6]: 0.967
- IC50 [6]: > 5000 nM
- AUC [7]: 0.764
- IC50 [7]: 1670 nM

Cell Line: MDST8 (large intestine, adherent)
- AUC [1]: 0.956
- IC50 [1]: > 10000 nM
- AUC [2]: 0.986
- IC50 [2]: > 128 nM
- AUC [3]: 0.102
- IC50 [3]: < 3.91 nM
- AUC [4]: 0.894
- IC50 [4]: > 20000 nM
- AUC [5]: 0.873
- IC50 [5]: 19000 nM
- AUC [6]: 0.664
- IC50 [6]: 889 nM
- AUC [7]: 0.958
- IC50 [7]: > 5120 nM

Cell Line: ME-1 (acute myeloid leukaemia, suspension)
- AUC [1]: 0.938
- IC50 [1]: > 10000 nM
- AUC [2]: 0.989
- IC50 [2]: > 128 nM
- AUC [3]: 0.881
- IC50 [3]: > 1000 nM
- AUC [4]: 0.62
- IC50 [4]: 2750 nM
- AUC [5]: 0.983
- IC50 [5]: > 20000 nM
- AUC [6]: 0.766
- IC50 [6]: 1970 nM
- AUC [7]: 0.826
- IC50 [7]: 3390 nM

Cell Line: MEG-01 (chronic myeloid leukaemia, suspension)
- AUC [1]: 0.934
- IC50 [1]: > 10000 nM
- AUC [2]: 0.787
- IC50 [2]: 52.1 nM
- AUC [3]: 0.281
- IC50 [3]: 15.6 nM
- AUC [4]: 0.636
- IC50 [4]: 2890 nM
- AUC [5]: 0.797
- IC50 [5]: 8780 nM
- AUC [6]: 0.698
- IC50 [6]: 1080 nM
- AUC [7]: 0.108
- IC50 [7]: < 20 nM

Cell Line: MFM-223 (breast, adherent)
- AUC [1]: 0.981
- IC50 [1]: > 10000 nM
- AUC [2]: 0.987
- IC50 [2]: > 128 nM
- AUC [3]: 0.87
- IC50 [3]: 912 nM
- AUC [4]: 0.989
- IC50 [4]: > 20000 nM
- AUC [5]: 0.872
- IC50 [5]: 18800 nM
- AUC [6]: 0.983
- IC50 [6]: > 5000 nM
- AUC [7]: 0.835
- IC50 [7]: 3320 nM
